Assay results from PMC4336329 (PLoS ONE, 2015).
Among all 310,000 compounds or so, about 2,200 (0.71%) showed an effect of 50% or more. The effect is printed as a negative number. Some of the results follow.

target: human ether-à-go-go-related gene (hERG) potassium channel (human, UniProt Q12809); assay: primary screen, population patch clamp on CHO cells stably expressing hERG
Sequence (Q12809 whole entry, looked up): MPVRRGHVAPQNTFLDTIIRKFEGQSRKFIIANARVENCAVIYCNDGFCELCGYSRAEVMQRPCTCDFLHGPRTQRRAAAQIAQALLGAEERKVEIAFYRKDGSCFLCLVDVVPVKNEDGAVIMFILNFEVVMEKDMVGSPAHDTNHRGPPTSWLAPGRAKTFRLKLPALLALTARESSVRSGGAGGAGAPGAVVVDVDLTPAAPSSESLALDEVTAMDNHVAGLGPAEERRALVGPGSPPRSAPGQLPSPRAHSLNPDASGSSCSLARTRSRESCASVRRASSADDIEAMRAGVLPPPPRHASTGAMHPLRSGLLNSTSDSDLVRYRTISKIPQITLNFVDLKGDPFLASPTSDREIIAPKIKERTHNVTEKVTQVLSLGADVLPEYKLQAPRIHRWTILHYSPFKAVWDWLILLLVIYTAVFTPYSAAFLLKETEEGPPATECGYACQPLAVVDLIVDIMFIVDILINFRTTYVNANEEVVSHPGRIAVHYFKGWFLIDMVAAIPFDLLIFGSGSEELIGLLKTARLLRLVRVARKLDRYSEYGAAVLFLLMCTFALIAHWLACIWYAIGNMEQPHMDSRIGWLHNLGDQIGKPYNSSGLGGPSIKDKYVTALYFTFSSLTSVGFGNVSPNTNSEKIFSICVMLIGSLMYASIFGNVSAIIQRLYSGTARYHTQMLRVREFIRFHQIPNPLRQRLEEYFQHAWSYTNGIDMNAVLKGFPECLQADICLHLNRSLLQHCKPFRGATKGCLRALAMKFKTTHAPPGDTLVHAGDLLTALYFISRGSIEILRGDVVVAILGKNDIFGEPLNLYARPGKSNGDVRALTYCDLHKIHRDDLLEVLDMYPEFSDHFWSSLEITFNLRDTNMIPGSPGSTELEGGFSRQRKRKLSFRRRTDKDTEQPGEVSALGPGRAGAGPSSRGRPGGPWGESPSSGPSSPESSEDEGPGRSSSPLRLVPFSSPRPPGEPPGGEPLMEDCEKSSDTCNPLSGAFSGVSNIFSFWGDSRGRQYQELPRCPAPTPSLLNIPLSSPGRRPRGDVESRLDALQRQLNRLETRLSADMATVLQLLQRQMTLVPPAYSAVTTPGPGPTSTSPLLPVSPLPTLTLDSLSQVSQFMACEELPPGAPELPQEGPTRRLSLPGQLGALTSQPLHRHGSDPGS

SMILES | hERG current change (%, negative = inhibition) at 1uM
Cc1ccc2nc(-c3ccncc3)cc(C(=O)NCc3ccccc3F)c2c1 | 14.1%
COC(=O)CSC(C)C(=O)Nc1nnc(C(C)C)s1 (centres unmarked) | 6.29%
N/C(=N\c1nc(CSc2ccc(Cl)cc2)cc(=O)[nH]1)Nc1cccc2ccccc12 | 7.94%
Cc1ccc2c(c1)/C(=C/c1ccc(F)cc1)C(=O)N2 | 14%
O=C(NCCNC(=O)c1ccc(-c2ccc(Cl)c(Cl)c2)o1)c1cnccn1 | -54.4%
CCCc1nnc(NC(=O)CCC(=O)N2CCN(CCOc3ccc(C)cc3)CC2)s1 | -5.24%
O=C(Cc1ccccc1)NCCS(=O)(=O)N1CCN(c2ccccc2)CC1 | 11.5%
COc1cc2c(c(O)c1OC)-c1c(cc(OC)c(OC)c1OC)C[C@@H](C)[C@@H](C)C2 | -41.5%
CCCc1c(O)c2ccccc2[nH]c1=O | 19.4%
CC(C)(C)CN1CCC(Oc2cccc(C(=O)N3CCC[C@H]3CO)c2)CC1 | 27.5%
Cc1nc2ccccn2c1C(=O)NN=C1C2CC3CC(C2)CC1C3 | -1.59%
O=C(c1ccccc1)N1CCn2c1nc1ccccc12 | 9.44%
O=S(=O)(Nc1cccnc1)c1cc(Cl)ccc1Cl | 15.9%
COc1ccc(/C=N/N=C2/C(=O)Nc3ccccc32)cc1O | 12.2%
CCS(=O)(=O)Nc1cccc(C(=O)CC2(O)C(=O)Nc3ccccc32)c1 (centres unmarked) | 11.9%
Cc1ccc(C)n1-c1ccc(C(=O)Nc2ccccc2)cc1 | 10.7%
CN(C)C(=O)Oc1ccc(OCc2cccc[n+]2C)cc1.Cc1ccc(S(=O)(=O)[O-])cc1 | 4.86%
N#CCCN1CCN(S(=O)(=O)c2ccc(S(=O)(=O)N3CCCC3)cc2)CC1 | 11.4%
O=C(Nc1ccc(F)cc1)c1oc2ccccc2c1NC(=O)C1CCCC1 | -2.95%
CCOC(=O)C1(CCSC)NC(c2ccco2)C2C(=O)N(CC)C(=O)C21 (centres unmarked) | 16.1%
Cc1onc(-c2ccccc2)c1C(=O)Nc1ccc(S(=O)(=O)N2CCCCC2)cc1 | 12.6%
COc1ccc(N2CCN(C(=O)Nc3ccccc3Cl)CC2)cc1 | 12%

SMILES | hERG current change (%, negative = inhibition) at 1uM
CO/N=C/c1ccc(Sc2ccccc2)c([N+](=O)[O-])c1 | 5.28%
O=C(NCc1ccncc1)Nc1ccc(Cl)cc1Cl | 12.2%
CNc1oc(-c2ccccc2)nc1C#N | 16.5%
C/C(=N\Nc1nc(N2CCOCC2)nc(N2CCOCC2)n1)c1ccc([N+](=O)[O-])cc1 | 12.7%
Cc1n[nH]c(=O)c2c(NC(=O)CSc3nc4ccccc4c(=O)n3-c3ccc(OC(F)F)cc3)oc(C)c12 | -11.4%
CCOC(=O)c1cnc2cc(F)c(F)cc2c1N1CCN(C)CC1 | 12.4%
CCOC(=O)Cc1csc(NC(=O)Cc2ccc([N+](=O)[O-])cc2)n1 | -12.2%
CCOCCCN1CC(C(=O)NCCc2ccccc2)CC1=O (centres unmarked) | 2.02%
CC1CCN(CC(=O)NC2CCCCC2)CC1.Cl | 18.8%
Cc1cccc(-n2ncc3c(NCCc4ccc(S(N)(=O)=O)cc4)ncnc32)c1 | 6.43%
Cc1ccc(S(=O)(=O)Oc2ccccc2/C=N/Nc2ccc(C(=O)O)cc2)cc1 | 8.88%
Cc1ccccc1N1C(=O)C2C3C=CC(CC3)C2C1=O (centres unmarked) | 15.7%
Cc1ccc(C)n1NC(=O)c1cccc(Cl)c1 | 12%
CCN=C1SC(CC(=O)NC(C)C)C(=O)N1CC (centres unmarked) | -16.1%
O=C(Nc1ccc(Br)cn1)c1ccc(Cl)s1 | 12.3%
O=C1CCCC2=C1C(Cc1ccccc1)C1=C(CCCC1=O)O2 | 2.01%
O=C(Cn1cnc2ccccc2c1=O)Nc1nnc(C2CC2)s1 | 12.1%
COC(=O)c1ccc(COC(=O)c2ccc(N(C)C)cc2)cc1 | 1.63%
COc1cc(NC(=O)C/C(C)=N/NC(=O)c2cccs2)c(OC)cc1Cl | 5.06%
CN(c1nc2c(c(=O)n(C)c(=O)n2C)n1CC(=O)c1ccccc1)C1CCCCC1 | 6.38%
CCOC(=O)c1ccc(S(=O)(=O)NNC(=O)COc2ccccc2C)cc1 | 18%
CCC[N+]12CCC(CC1)C(C(O)(c1ccccc1)c1ccccc1)C2.[Br-] (centres unmarked) | 6.77%
